Measured values taken from PMC4336329 (PLoS ONE, 2015).
In all, about 310,000 compounds went through this assay and about 14,000 (4.5%) showed an effect of 50% or more. The effect is printed as a negative number. This is one part of the list.

These molecules were tested against human ether-à-go-go-related gene (hERG) potassium channel (human, UniProt Q12809) (assay: primary screen, population patch clamp on CHO cells stably expressing hERG).
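Further: peak tail current of the secondary pulse compared with the same well before compound.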

Chain of human ether-à-go-go-related gene (hERG) potassium channel (Q12809 whole entry, looked up): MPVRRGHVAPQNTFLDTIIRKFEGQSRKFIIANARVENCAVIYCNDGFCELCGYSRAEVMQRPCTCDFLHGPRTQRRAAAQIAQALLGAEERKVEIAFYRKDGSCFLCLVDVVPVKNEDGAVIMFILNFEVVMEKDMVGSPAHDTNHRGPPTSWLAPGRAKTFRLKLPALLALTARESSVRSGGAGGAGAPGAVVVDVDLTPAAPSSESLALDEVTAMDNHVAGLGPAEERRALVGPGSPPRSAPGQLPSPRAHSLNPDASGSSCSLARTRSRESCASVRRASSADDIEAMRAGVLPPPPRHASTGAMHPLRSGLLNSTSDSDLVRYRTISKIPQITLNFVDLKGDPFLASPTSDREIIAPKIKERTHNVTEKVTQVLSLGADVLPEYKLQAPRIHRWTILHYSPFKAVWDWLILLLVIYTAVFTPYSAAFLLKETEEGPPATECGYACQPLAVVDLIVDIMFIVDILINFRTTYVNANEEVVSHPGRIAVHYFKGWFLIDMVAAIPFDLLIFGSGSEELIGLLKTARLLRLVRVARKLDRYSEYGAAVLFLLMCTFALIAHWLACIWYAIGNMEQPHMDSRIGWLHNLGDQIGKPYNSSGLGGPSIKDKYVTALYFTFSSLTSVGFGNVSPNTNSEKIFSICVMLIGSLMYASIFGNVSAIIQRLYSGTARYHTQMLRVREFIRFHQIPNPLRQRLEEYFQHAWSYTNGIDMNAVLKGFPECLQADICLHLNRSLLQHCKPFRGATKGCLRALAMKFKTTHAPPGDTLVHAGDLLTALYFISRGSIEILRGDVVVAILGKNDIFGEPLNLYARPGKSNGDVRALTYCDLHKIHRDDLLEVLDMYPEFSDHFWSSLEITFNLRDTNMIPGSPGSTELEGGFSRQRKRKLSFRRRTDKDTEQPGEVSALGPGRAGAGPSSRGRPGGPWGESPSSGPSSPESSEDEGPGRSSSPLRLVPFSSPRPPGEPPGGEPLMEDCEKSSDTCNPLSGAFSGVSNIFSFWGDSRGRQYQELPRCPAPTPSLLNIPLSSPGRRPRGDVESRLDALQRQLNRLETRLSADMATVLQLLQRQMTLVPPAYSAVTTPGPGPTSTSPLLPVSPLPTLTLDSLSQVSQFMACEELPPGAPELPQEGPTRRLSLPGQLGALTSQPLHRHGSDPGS

Row | SMILES | hERG current change (%, negative = inhibition) at 10uM [%]
1 | COc1ccc(S(=O)(=O)N2CCN(C)CC2)cc1C(=O)Nc1ccccc1 | 1.79
2 | CCOc1ccc(-n2c(N)c(C(=O)NCc3cccnc3)sc2=S)cc1 | 12.4
3 | Cc1cc(O)ccc1Nc1nc2ccccc2nc1Nc1ccc(O)cc1C | 3.68
4 | Cc1ccc(/C=N/NC(=O)c2cccs2)o1 | 8.42
5 | O=C(CSc1nc(O)c(Cc2ccccc2)c(=O)[nH]1)N1CCOCC1 | 2.94
6 | Cc1nc2ccccc2c(=O)n1NC(=O)Cc1ccc([N+](=O)[O-])cc1 | -30.6
7 | Cc1ccc(N=Nc2ccc(O)cc2)c(Br)c1 | 16.4
8 | COc1cccc(NC(=O)C2CCN(S(=O)(=O)c3ccc4c(c3)NC(=O)C(C)S4)CC2)c1 (stereo not shown) | 16.5
9 | COc1ccc(C(=O)NCC(=O)OCc2ccc(F)cc2)cc1 | -18.8
10 | CSc1nc(-c2ccccc2)nn1S(=O)(=O)c1ccc(Cl)cc1 | 14.8
11 | O=C(c1cccc(Br)c1)c1cn(-c2ccccc2)nc1C(=O)c1ccccc1 | 5.57
12 | COc1ccc2nc(NC(=O)c3ccc(-n4nc(C)cc4C)cc3)sc2c1 | 21
13 | O=S(=O)(NCc1ccccn1)c1ccc(Cl)c(C(F)(F)F)c1 | 12.5
14 | O=C(c1ccc(=O)[nH]c1)N1CCN(S(=O)(=O)c2ccc(Cl)cc2)CC1 | 15
15 | CCN(Cc1ccccc1)S(=O)(=O)c1ccc(C(=O)Nc2nnc(C3CC3)o2)cc1 | -36.7
16 | CCN(CC)S(=O)(=O)c1ccc(N2CCCC2)c(NS(=O)(=O)c2ccc(F)cc2)c1 | -16.2
17 | CN1C(=O)[C@@H]2[C@H](C1=O)[C@@H]1C(=O)Nc3ccccc3C(=O)N1[C@@H]2c1cccc(Br)c1 | -30
18 | CSc1n[nH]c(NCc2ccc(Cl)cc2)n1 | 6.04
19 | Cc1ccc(-n2nnnc2SCC(=O)NC2CCCc3ccccc32)cc1 (stereo not shown) | -23.8
20 | CCN1C(=O)C2C(c3ccc(O)c(OC)c3)NC(C)(C(=O)OC)C2C1=O (stereo not shown) | 12.1
21 | COCCNC(=O)C(NC(=O)C1CCC(C)CC1)C(C)C (stereo not shown) | 3.79
22 | COc1ccc(NC(=O)C2CC(c3ccc(OC)c(OC)c3)=NO2)cc1OC (stereo not shown) | -6.91

Row | SMILES | hERG current change (%, negative = inhibition) at 10uM [%]
23 | Cc1cc(=O)[nH]c(Nc2ccc(C(=O)OC(C)C)cc2)n1 | 8.63
24 | O=C(COC(=O)CCC(=O)c1ccc(Cl)cc1)NC1CC1 | 7.93
25 | CC(C)(C)n1nnnc1CN1CCN(C2CCCC2)CC1 | 2.52
26 | COC(=O)c1ccc2ccccc2c1OC1OC(CO)C(O)C(O)C1NC(C)=O (stereo not shown) | 13.8
27 | CCCc1ccc(OCc2ccc(C(=O)N3CCN(c4ccccn4)CC3)o2)c(OC)c1 | -56.5
28 | O=C(NN1CCCCC1)c1cnn2c(C(F)F)cc(-c3ccccc3)nc12 | -2.14
29 | Cc1cccc(CCNC(=O)CCNC(=O)Cn2ccc3ccccc3c2=O)c1 | 8.39
30 | O=C(COC(=O)c1ccc[nH]c1=O)NCC12CC3CC(CC(C3)C1)C2 | 13.4
31 | Cc1ccc(CNC(=O)C2CCCN(c3nc4ccccc4o3)C2)cc1 (stereo not shown) | -1.06
32 | CC(=O)Nc1sc2c(c1CN1CCCC1)CCCC2 | 7.34
33 | CCOC(=O)C1(CCCc2ccccc2)CCN(C(=O)CCc2cnccn2)CC1 | -66.4
34 | Cc1nc(-c2ccccc2)cc(N2CCCC2)n1 | -16.7
35 | COCCCNC(=S)Nc1cccc2ncccc12 | 15.9
36 | COc1ccccc1OCCCCOc1ccccc1C(C)=O | -6.16
37 | Cc1ccc(NC(=O)Nc2nnc(-c3ccncc3)s2)cc1 | 1.21
38 | CCOC(=O)c1c(NC(=O)CSc2nnnn2-c2ccccc2OCC)sc2c1CC(C)(C)NC2(C)C | -71.2
39 | COc1ccc(-c2nc(CS(=O)(=O)CC(=O)NCCc3cc(OC)ccc3OC)c(C)o2)cc1 | -16.1
40 | CCc1cccc(C)c1NC(=S)NCC(c1cccnc1)N1CCOCC1 (stereo not shown) | -14.3
41 | CC1(C)Cc2c(C#N)c(NCc3ccco3)nc(-c3ccco3)c2CO1 | -8.94
42 | CC1=CC(C)(C)NC(=S)N1c1cc(C)cc(C)c1 | 10.5
43 | CC(C)CCN1CC(=O)N2Cc3[nH]c4ccccc4c3C[C@H]2C1=O | 15.8
44 | COc1ccc(C(=O)Oc2cccc3cccnc23)cc1[N+](=O)[O-] | 5.68

Row | SMILES | hERG current change (%, negative = inhibition) at 10uM [%]
45 | Cc1cc(=O)oc2c(C(=O)/C=C/c3ccccc3)c(O)ccc12 | 1.93
46 | COC(=O)C1C(O)C(C)C(O)C(C)/C=C\C=C(/C)C(=O)Nc2c(C)c(OC(C)=O)c3c(c2O)C(=O)C(C)=C2OCOC(=C23)/C(C)=C/C(C)(O)C(O)C(C)C1O (stereo not shown) | 3.92
47 | CCCn1c(N)c(N(CCOC)C(=O)CSCC(=O)Nc2ccc(OC)cc2)c(=O)[nH]c1=O | -30.8
48 | CC(C)NC(=O)Cn1c(SCC(=O)N2CCc3ccccc3C2)nc2ccccc21 | -13.2
49 | O=c1c(C=NCC2CCCO2)c(-c2ccccc2)[nH]n1-c1ccc([N+](=O)[O-])cc1 (stereo not shown) | 7.58
50 | CCC(=O)Nc1c2c(nn1-c1ccccc1)CSC2 | 13.1
51 | Cc1cc(CSC(=N)N)c(CSC(=N)N)cc1C | 5.65
52 | CC(C)(C)c1ccc(CCC(CC(=O)O)CC(=O)O)cc1 | -11.9
53 | C=CCc1ccccc1OCC(=O)N/N=C/c1ccccc1OCC | 7.85
54 | CC(=O)N1CC[n+]2c(-c3ccc([N+](=O)[O-])cc3)csc21.[Br-] | -68.9
55 | O=C(C1CC1)N1CCc2cc(S(=O)(=O)N3CCOCC3)ccc21 | -0.00762
56 | COc1cc(/C=N/NC(=O)CNC(=O)c2ccc3c(c2)OCCO3)ccc1O | 1.98
57 | CC(C)c1ccc(CNC(=O)C2CCCN2S(=O)(=O)c2ccccc2)cc1 (stereo not shown) | -2.57
58 | COc1ccc(C(CNC(=O)c2cccc(S(=O)(=O)Nc3ccccc3Cl)c2)N2CCOCC2)cc1 (stereo not shown) | 9.73
59 | Cc1c(Cl)cccc1NC(=O)COC(=O)CN1C(=O)NC(C)(C)C1=O | -0.465
60 | COCCN1C(=O)N(c2cccc(OC)c2)C(=O)C1CC(=O)Nc1ccc(Cl)cc1 (stereo not shown) | 3.54
61 | CCOC(=O)/C(C#N)=N/Nc1c(C)n(C)n(-c2ccccc2)c1=O | 18.7
62 | COc1cccc(CNc2ccc(F)c(Cl)c2)c1OC | 2.93
63 | CCC(=O)Nc1ccc(NC(=O)c2ccccc2)nc1 | -15.7
64 | CCCS(=O)(=O)C(=C(Nc1ccc(OC)cc1)Nc1ccc(OC)cc1)S(=O)(=O)CCC | -2.24
65 | COc1ccc(C(=O)CC(=O)C(=O)Nc2cccc(C(C)=O)c2)cc1 | 29.9
66 | Cc1cc(=O)oc2c(CN(C)Cc3ccccc3)c(O)ccc12 | -12.6

Row | SMILES | hERG current change (%, negative = inhibition) at 10uM [%]
67 | CCOC(=O)/C(=N/Nc1ccc(Cl)cc1)Sc1nnnn1-c1ccc(C)cc1 | 23.3
68 | O=C1C2CCCN2C(c2ccccc2)N1c1ccccn1 (stereo not shown) | 8.79
69 | CCC(C)[C@H](NC(=O)NCc1ccc(S(N)(=O)=O)cc1)C(=O)OC (stereo partly shown) | 3.14
70 | Nc1nc(SCC(=O)NC2CCCC2)[nH]c(=O)c1NC(=O)c1cccs1 | -0.849
71 | CCCC(=O)NC(Oc1ccc(OC)cc1)C(Cl)(Cl)Cl (stereo not shown) | -0.123
72 | CCOc1cccc(C2C(C#N)=C(N)Oc3cc(C)oc(=O)c32)c1OCC (stereo not shown) | 4.23
73 | O=C(c1ccccc1)N1CCN(C(=O)N2CCCCC2)CC1 | 7.37
74 | C=CCN(C(=O)c1ccccn1)C(C(=O)NCc1ccccc1)c1ccccc1F (stereo not shown) | 10.8
75 | C=CCc1ccc(OCCOCCOc2ccc(C)cc2[N+](=O)[O-])c(OC)c1 | -37.8
76 | Cc1cccc(NC(=S)NC2CC3CCCC(C2)N3Cc2cccs2)c1C (stereo not shown) | -37.9
77 | CCC(c1nnc(SCC(=O)Nc2ccc(C(C)=O)cc2)n1C1CCCCC1)N(C)C (stereo not shown) | -9.96
78 | CCC(C(=O)Nc1ccc(Cl)cc1)N1CCCC1=O (stereo not shown) | 2.42
79 | O=C(COC(=O)c1ccc(F)c(S(=O)(=O)N2CCOCC2)c1)NC1CCCCC1 | -4.84
80 | N#CCCNC(=O)Cn1c(COc2ccc(Cl)cc2)nc2ccccc21 | -24.5
81 | Cc1ccc(NC(=O)c2ccccn2)c(Br)c1 | 19.8
82 | CC1CC(C)(C)CC2(C1)NC(=O)N(CC(=O)OCc1ccc(Br)cc1)C2=O (stereo not shown) | 3.04
83 | O=C(c1ccncc1)C12CN3CN(CN(C3)C1)C2 | 3.73
84 | Cc1cccn2c(=O)c(/C=N/O)c(NCc3ccccc3)nc12 | 8.18
85 | COC(=O)c1ccc(NC(=O)c2c(Br)cnn2C)cc1 | 11.8
86 | CCCCC(CC(C)O)c1n[nH]c(=S)n1-c1ccccc1 (stereo not shown) | 3.1
87 | Cc1ccc(NC(=O)CCCCCN2C(=O)[C@@H]3Cc4ccccc4CN3C2=O)c(Cl)c1 | -20.1
88 | CCCCNC(=O)C1CCCN(S(=O)(=O)c2c(C)noc2/C=C/c2cccs2)C1 (stereo not shown) | -21.8
